From PubChem BioAssay AID1476 (National Center for Advancing Translational Sciences (NCATS), 2009)
About 4,500 (2.2%) of roughly 200,000 compounds were called active. The inconclusive results got no clear call from the source; some entries with a clear call stand among them for comparison. The call rests on the fitted dose curve; in most records, active means well fitted inhibition curve with a large enough effect; inconclusive means small, poorly fitted or top-dose-only effect, or effect the other way; inactive means flat fitted curve, though single readings scatter. Potencies beside an inconclusive call are fits to weak or partial responses and may not hold up.

molecular target: Cruzipain (Trypanosoma cruzi) (UniProt P25779); test: qHTS Assay for Promiscuous and Specific Inhibitors of Cruzain (without detergent); conditions: purified cruzain, Z-FR-AMC fluorescence, no detergent; further: nearly all actives have a fitted effect of over 40% in size
Sequence of UniProt P25779 (P25779 whole entry, looked up): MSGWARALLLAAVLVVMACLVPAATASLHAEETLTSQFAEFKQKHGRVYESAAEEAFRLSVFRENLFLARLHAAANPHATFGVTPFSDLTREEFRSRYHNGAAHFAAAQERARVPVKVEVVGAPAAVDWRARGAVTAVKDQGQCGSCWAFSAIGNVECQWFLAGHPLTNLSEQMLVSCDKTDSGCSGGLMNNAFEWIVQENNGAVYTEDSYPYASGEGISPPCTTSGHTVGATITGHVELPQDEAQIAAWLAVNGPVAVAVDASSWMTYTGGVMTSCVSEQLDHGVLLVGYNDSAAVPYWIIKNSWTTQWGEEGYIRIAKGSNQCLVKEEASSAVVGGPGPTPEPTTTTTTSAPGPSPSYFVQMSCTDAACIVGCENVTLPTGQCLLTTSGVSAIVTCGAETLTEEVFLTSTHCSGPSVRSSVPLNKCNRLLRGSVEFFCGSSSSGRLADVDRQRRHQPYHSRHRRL
Procedure: Cruzain is a cysteine protease from the tropical parasite Trypanosoma cruzi. Dual qHTS experiment was performed against the NCGC compound collection in order to 1) identify novel inhibitors of the enzyme and 2) profile the compound collection for promiscuous inhibitors operating via colloidal aggregation (by performing detergent-free and detergent-containing comparison screens). Cruzain was assayed by the use of fluorogenic coumarin-based substrate Z-FR-AMC: proteolytic cleavage releases AMC, whose fluorescence is measured at 360 nm excitation and 450 nm emission. Purified cruzain was supplied by the labs of Prof. James McKerrow and Brian Shoichet, UC San Francisco.
This assay had 0.00005% Triton X-100 concentration. See also releated assay "qHTS Assay for Promiscuous and Specific Inhibitors of Cruzain (with detergent)" with 0.01% Triton X-100.
See following references for additional details:
Assay Provider: Shoichet, Brian; University of California, San Fancisco
Screening Center PI: Austin, C.P.
Screening Center: NIH Chemical Genomics Center [NCGC]
Buffer: 100 mM Sodium Acetate, pH 5.5, 5 mM DTT, Triton X-100 concentration: 0.01%.
Buffer in columns 3 and 4 as negative control (no enzyme).
Substrate solution: 2 uM final concentration of Z-FR-AMC (catalog number I-1160, Bachem) dispensed throughout the plate.
Enzyme: 1.5 nM Cruzain final concentration in columns 1, 2, 5-48. Column 1 is neutral (100% activity). Column 2 contained titration of covalent inhibitor K11777, starting concentration 1 mM, then 1:2 dilution in duplicate).
Three uL of enzyme or buffer were dispensed to 1536-well Greiner black solid bottom plates. Compounds and controls (23 nL) were transferred via Kalypsys PinTool. The plates were incubated for 15 min at room temperature, and then 1 uL of substrate solution was added to start the reaction. The plates were immediately transferred to and read 4 times every 30 seconds for 2 min on ViewLux High-throughput CCD imager (Perkin-Elmer) using 360 nm excitation and 450 nm emission fluorescence protocol. The fluorescence intensity difference between the third and the first time points (time lapse of 60 seconds) was used to compute reaction progress.
Potency means the concentration at half of the fitted maximal effect; tags describe the fitted curve by direction and shape.

| SMILES | Potency | max response, negative = inhibition |
| --- | --- | --- |
| Cc1ccc(-c2nnn(CC(=O)N(Cc3ccccc3F)C(C(=O)NC3CCCC3)c3ccncc3)n2)o1 (stereo not drawn) | inconclusive: 39.8 µM [activator, single point] | – |
| COC(=O)c1cc(OC)c(OC)cc1NC(=O)CC1CCCCC1 | inconclusive: 39.8 µM [activator, single point] | – |
| Cc1ccc(CCNC(=O)C2CCCN(C(=O)c3cc4sccc4n3C)C2)cc1 (stereo not drawn) | inconclusive: 31.6 µM [activator, single point] | – |
| O=C(NCCc1c[nH]c2ccccc12)C(=O)NCC(c1ccco1)N1CCN(c2ccc(F)cc2)CC1 (stereo not drawn) | inconclusive: 20 µM [inhibitor, single point] | – |
| COc1cccc(C(c2sc3nc(C)nn3c2O)N2CCN(c3ccccc3F)CC2)c1 (stereo not drawn) | inconclusive: 31.6 µM [activator, single point] | – |
| Cc1cc(C)cc(NC(=O)CN2C(=O)c3ccccc3Sc3ccc(C(=O)N4CCOCC4)cc32)c1 | inconclusive: 31.6 µM [activator, single point] | – |
| C/C(N)=C(/C#N)C(=O)COC(=O)c1cc(C)n(-c2ccc(F)cc2)c1C | inconclusive: 31.6 µM [activator, single point] | – |
| Cc1cc(-c2csc(NC(=O)c3ccc(=O)n(C)n3)n2)c(C)n1CC1CCCO1 (stereo not drawn) | inconclusive: 25.1 µM [activator, single point] | – |
| CCNC(=O)COc1ccc(-c2ccccc2)cc1 | inconclusive: 2.51 µM [inhibitor, partial curve] | – |
| c1cncc(CNc2ncncc2-c2ccc3c(c2)OCO3)c1 | – | inactive: -4.23% |
| CC(C)C(N)C(=O)OCCOCn1cnc2c(=O)[nH]c(N)nc21 (stereo not drawn) | inconclusive: 25.1 µM [activator, single point] | – |
| COc1ccc(S(=O)(=O)N(Cc2ccc(OC)c(OC)c2)Cc2ccco2)cc1 | inconclusive: 39.8 µM [activator, single point] | – |
| CC1(C)NC(=O)N(CC(=O)OCC(=O)Nc2cc(S(=O)(=O)N3CCCCCC3)ccc2Cl)C1=O | inconclusive: 39.8 µM [activator, single point] | – |
| Cc1cccc(NC(=O)C2SC(=Nc3c(C)cccc3C)C(C(=O)N3CCOCC3)=C2N)c1 (stereo not drawn) | inconclusive: 39.8 µM [activator, single point] | – |
| COC(=O)c1[nH]c2cc(C)ccc2c1NC(=O)CN1CCCc2ccccc21 | inconclusive: 39.8 µM [inhibitor, single point] | – |
| Cc1ccc(-c2nn(-c3ccccc3)cc2/C=N/NC(=O)c2ccc(Br)o2)cc1 | inconclusive: 31.6 µM [inhibitor, single point] | – |
| Cc1cc(C(=O)COC(=O)CN=C2NS(=O)(=O)c3ccccc32)c(C)n1CCc1ccc(Cl)cc1 | inconclusive: 31.6 µM [inhibitor, single point] | – |
| O=C(COC(=O)c1cccc(S(=O)(=O)N2CCc3ccccc32)c1)NC1CCS(=O)(=O)C1 (stereo not drawn) | inconclusive: 39.8 µM [activator, single point] | – |
| CCOC(=O)c1ccccc1NC(=O)Cn1c(-c2nonc2N)nc2ccccc21 | inconclusive: 39.8 µM [inhibitor, single point] | – |
| O=C(Nc1nnc(-c2ccccc2Cl)o1)c1cc2cc([N+](=O)[O-])ccc2s1 | inconclusive: 25.1 µM [inhibitor, single point] | – |
| CC(C)OC(=O)CC12CN3CC(CC(=O)OC(C)C)(CN(C1)C(=O)c1ccccc1C3=O)C2=O | inconclusive: 25.1 µM [activator, single point] | – |

| SMILES | Potency | max response, negative = inhibition |
| --- | --- | --- |
| CCN1C(=O)c2cccc3c(S(=O)(=O)N(C(=O)c4ccncc4)c4ccc(OC)cc4)ccc1c23 | inconclusive: 39.8 µM [activator, single point] | – |
| CCc1ccccc1NC(=O)CN1C(=O)CCc2cc(S(=O)(=O)N3CCCCC3)ccc21 | – | inactive: 12.5% |
| O=C(CCCn1c(=S)[nH]c2cc3c(cc2c1=O)OCO3)N1CCN(c2ccc(Cl)cc2)CC1 | inconclusive: 31.6 µM [inhibitor, single point] | – |
| N#Cc1c(-c2ccccc2)nc2n(-c3ccccc3)nc(C(=O)Nc3ccccc3)n2c1=O | active: 10 µM | – |
| COc1cc2c(cc1NC(=O)Cc1ccc(C)cc1)oc1ccccc12 | – | inactive: -0.404% |
| COc1cccc(CC(NC(C)=O)C(=O)NC2CCN(c3c(Cc4ccccc4)c(C)nc4ncnn34)CC2)c1 (stereo not drawn) | inconclusive: 31.6 µM [activator, partial curve] | – |
| COc1ccccc1N1CCN(C(=O)c2ccc(S(=O)(=O)N3CCCC3)cc2)CC1 | inconclusive: 39.8 µM [activator, single point] | – |
| Cc1ccc(CSc2sc(C(=O)c3ccccc3)c(N)c2C#N)cc1 | active: 20 µM | – |
| CCCCN(Cc1ccccc1)C(=O)c1oc(=O)c2ccccc2c1-c1ccc(C)cc1 | inconclusive: 31.6 µM [inhibitor, single point] | – |
| CCn1c(C(=O)N2CCC(C(=O)NCCc3ccccc3)CC2)cc2sccc21 | inconclusive: 31.6 µM [activator, single point] | – |
| CCSc1ncnc2c1sc1nc3c(cc12)COC(C)(C)C3 | inconclusive: 39.8 µM [activator, single point] | – |
| Cc1ccc(-n2c3nc(=O)n(C)c(=O)c-3cc3c(Cl)cccc32)c(C)c1 | – | inactive: -5.83% |
| Cc1ccc(NS(=O)(=O)c2ccc(NC(=O)N3CCCC3)cc2)cc1C | – | inactive: 8.38% |
| N#C/C(=C1\CCCN1)c1nc(-c2ccccc2)cs1 | – | inactive: -17.6% |
| COc1cc2c(C=O)c3c4c(cc(OC)c(OC)c4c2cc1OC)CCN3C | inconclusive: 39.8 µM [activator, single point] | – |
| COc1cc(NC(=O)CCc2c(C)nc3nc(-c4cc(OC)cc(OC)c4)nn3c2C)cc(OC)c1 | – | inactive: -3.54% |
| O=C(CSc1nc(-c2ccccc2)nc2c1CCCC2)c1ccc(F)cc1 | – | inactive: 3.98% |
| Cc1nc2cc(N3CCCCC3)c(NC(=O)c3ccncc3)cc2c(=O)n1Cc1ccccc1 | inconclusive: 3.16 µM [activator, full curve, poor fit] | – |
| COc1ccccc1Nc1cc(C(=O)NCCCN(C)c2ccccc2)c2ccccc2n1 | inconclusive: 39.8 µM [inhibitor, single point] | – |
| CCOC(=O)C1=C(N)n2c(s/c(=C\c3cccs3)c2=O)=C(C(=O)OCC)C1c1cccs1 (stereo not drawn) | active: 2 µM | – |
| COc1ccccc1NC(=O)Cn1nnc(-c2ccccc2NS(=O)(=O)c2ccccc2)n1 | inconclusive: 31.6 µM [inhibitor, single point] | – |

| SMILES | Potency | max response, negative = inhibition |
| --- | --- | --- |
| C(=C\c1ccccc1)/C=N/Nc1nc2ccccc2s1 | inconclusive: 31.6 µM [inhibitor, single point] | – |
| CC(C)(C)OC(=O)N1CCC(c2c(C(=O)NCc3ccccn3)cnn2-c2ccccc2)CC1 | – | inactive: 6.07% |
| Cc1nnc(SCc2ccc(C(=O)c3ccc(Cl)cc3)o2)n1-c1ccccc1 | inconclusive: 39.8 µM [activator, single point] | – |
| Cc1c(C(=O)O)oc2ccc(S(=O)(=O)N(CC(C)C)CC(C)C)cc12 | inconclusive: 39.8 µM [activator, single point] | – |
| COc1ccccc1-c1nc(C#N)c(N2CCN(C(c3ccccc3)c3ccccc3)CC2)o1 | active: 7.94 µM | – |
| COc1cccc(Cn2c(CNC(=O)C(C)C)nc3cccnc32)c1 | – | inactive: -13.7% |
| CCOC(=O)c1c(NC(=O)/C=C/c2ccccc2)sc2c1CCCC2 | – | inactive: 1.01% |
| COC(=O)c1ccc(C(=O)OC)c(NC(=O)COC(=O)C23CC4CC(CC(O)(C4)C2)C3)c1 | inconclusive: 39.8 µM [activator, single point] | – |
| COc1ccc(OC)c(S(=O)(=O)NCCc2sc(-c3ccc(C)cc3)nc2C)c1 | inconclusive: 39.8 µM [activator, single point] | – |
| CCCCN1C(=O)Cc2c1nc(N)c1c(N)nc(N(CCC)CCC)c(C#N)c21 | inconclusive: 7.94 µM [inhibitor, full curve, poor fit] | – |
| COc1ccc2nc(SCC(=O)Nc3ccc4c(c3)CCC4)[nH]c2c1 | inconclusive: 39.8 µM [inhibitor, single point] | – |
| O=C(CSc1nnc(C2CC2)n1-c1ccccc1)NCCc1ccccc1 | – | inactive: -4.23% |
| Cc1cccc(CN2C(=O)c3ccccc3Sc3ccc(C(=O)N4CCCC4)cc32)c1 | inconclusive: 39.8 µM [activator, single point] | – |
| CCCN(CCC)C(=O)CSc1nnc2cc(C)c3cc(C)cc(C)c3n12 | – | inactive: -6.17% |
| Cc1cc(C(=O)CN2CCC(C)CC2)c(C)n1-c1ccc(F)cc1 | – | inactive: -1.85% |
| CCN(CC)c1ccc(NC(=O)c2ccccc2F)cc1S(=O)(=O)Nc1ccccc1OC | inconclusive: 10 µM [inhibitor, partial curve] | – |
| COc1cc(N=C2C(=O)N3CCCc4cccc2c43)cc(OC)c1 | inconclusive: 39.8 µM [activator, single point] | – |
| Cc1ccc2cccc(NC(=O)COc3ccccc3[N+](=O)[O-])c2n1 | – | inactive: 18.9% |
| O=c1c(C=Nc2ccc(Oc3ccccc3)cc2)c[nH]n1-c1cccc(Cl)n1 | inconclusive: 39.8 µM [inhibitor, single point] | – |
| COc1ccc2c(c1)c1c(c(=O)n(-c3ccccc3C)c(=O)n1CC(=O)NCc1ccc(C)cc1)n2C | inconclusive: 6.31 µM [activator, single point] | – |
| Cc1cc(Nc2ccc(C)c(C)c2)n2cnnc2n1 | – | inactive: -1.84% |
